Assay results published in article PMC4336329 (PLoS ONE, 2015).
Out of some 310,000 compounds screened, about 2,200 (0.71%) showed an effect of 50% or more. Effects have a minus sign here. The list shows a part of the results.

Target: human ether-à-go-go-related gene (hERG) potassium channel (human, UniProt Q12809)
Assay: primary screen, population patch clamp on CHO cells stably expressing hERG

Sequence of human ether-à-go-go-related gene (hERG) potassium channel (Q12809 whole entry, looked up): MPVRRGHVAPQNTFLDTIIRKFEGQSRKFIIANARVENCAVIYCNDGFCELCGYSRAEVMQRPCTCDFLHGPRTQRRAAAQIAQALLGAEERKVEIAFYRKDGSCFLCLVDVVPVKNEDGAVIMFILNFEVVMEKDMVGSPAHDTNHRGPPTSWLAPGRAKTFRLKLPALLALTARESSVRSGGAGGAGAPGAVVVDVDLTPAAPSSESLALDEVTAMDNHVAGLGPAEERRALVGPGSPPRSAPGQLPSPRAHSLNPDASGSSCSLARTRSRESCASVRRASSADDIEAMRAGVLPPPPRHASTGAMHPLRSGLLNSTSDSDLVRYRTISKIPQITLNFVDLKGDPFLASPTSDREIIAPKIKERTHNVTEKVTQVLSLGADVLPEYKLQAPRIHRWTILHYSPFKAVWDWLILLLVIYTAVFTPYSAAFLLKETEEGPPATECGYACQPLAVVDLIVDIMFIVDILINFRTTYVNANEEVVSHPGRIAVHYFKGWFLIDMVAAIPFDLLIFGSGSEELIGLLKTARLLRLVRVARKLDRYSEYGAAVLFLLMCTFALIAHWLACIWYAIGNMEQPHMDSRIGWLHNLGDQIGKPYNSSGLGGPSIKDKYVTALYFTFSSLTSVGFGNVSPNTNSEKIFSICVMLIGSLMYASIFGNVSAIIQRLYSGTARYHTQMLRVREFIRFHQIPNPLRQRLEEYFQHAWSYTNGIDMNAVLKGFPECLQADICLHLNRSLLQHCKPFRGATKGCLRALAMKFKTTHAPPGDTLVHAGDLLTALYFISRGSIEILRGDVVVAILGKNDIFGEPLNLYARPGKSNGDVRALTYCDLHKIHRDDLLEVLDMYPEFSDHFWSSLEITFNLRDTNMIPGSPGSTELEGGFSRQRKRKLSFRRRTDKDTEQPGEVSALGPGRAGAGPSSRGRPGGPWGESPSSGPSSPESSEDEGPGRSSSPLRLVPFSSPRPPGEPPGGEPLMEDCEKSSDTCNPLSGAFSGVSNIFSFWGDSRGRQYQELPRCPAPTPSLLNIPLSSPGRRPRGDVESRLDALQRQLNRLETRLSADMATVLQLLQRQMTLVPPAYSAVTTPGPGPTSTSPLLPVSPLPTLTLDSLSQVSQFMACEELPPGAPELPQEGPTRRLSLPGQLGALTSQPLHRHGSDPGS

SMILES	hERG current change (%, negative = inhibition) at 1uM [%]
O=S(=O)(c1cc(Cl)ccc1Cl)N1CCNCC1	12
O=C(NC1(C(F)(F)F)C(=O)Nc2c1c(=O)[nH]c(=O)n2Cc1ccccc1)c1ccco1 (stereo not shown)	0.54
COc1cccc(/C=C2\SC(=S)N(CCCC(=O)N3CCCCC3CCO)C2=O)c1 (stereo not shown)	12.8
CCCOC1CCCN(C(=O)c2ccc(OC3CCN(Cc4ccccn4)CC3)cc2)C1 (stereo not shown)	10.5
COc1ccccc1CN1CC(C(=O)NCCc2ccc(Cl)cc2)CC1=O (stereo not shown)	10.8
CCN1CCN(CC2CC3C=CC2C3)CC1 (stereo not shown)	17.5
CC(C)c1ccc(NC(=O)C2CCCN(S(=O)(=O)c3cnc[nH]3)C2)cc1 (stereo not shown)	11.9
CCOC(=O)c1[nH]c(COC(=O)CCCOc2ccccc2)c(C(=O)OCC)c1C	6.2
O=C(C1CC1)N1c2ccccc2Sc2ccccc21	10.6
N#C/C(=C\c1c(N2CCN(Cc3ccccc3)CC2)nc2ccccn2c1=O)S(=O)(=O)c1ccccc1	9.53
C/C(=N\NC(=O)CSc1nc(C)cc(C)n1)c1ccc2c(c1)OCCO2	18.7
N/C(=N\OC(=O)Cc1ccc([N+](=O)[O-])cc1)c1cccc(Br)c1	9.26
CN1CCN(c2ccc(NC(=O)COc3ccccc3Cl)cc2)CC1	-8.01
O=C(CNC(=O)c1ccc(Cl)cc1)N/N=C/C=C/c1ccccc1	9.65
CCc1cc(C(=O)c2ccccc2OC)c(N)s1	9.14
CCOC(=O)c1ccc(NC(=S)NCCc2ccccc2)cc1	16.3
COc1ccc(OCc2nc3ccccc3n2C(C)C)cc1	8.75
Cc1ccc(C)c(S(=O)(=O)NCCOC(=O)Nc2sc(=S)n(C)c2C)c1	2.29
COc1cccc(/C(O)=C2/C(=O)C(=O)N(Cc3ccco3)C2c2ccncc2)c1 (stereo not shown)	13.8
O=C(Nc1ccc(S(=O)(=O)N2CCOCC2)cc1)c1ccc2c(c1)OCO2	10.5
CC(CN1CCOCC1)OC(=O)c1ccccc1Cl.Cl (stereo not shown)	16.7
Cc1cccc(C)c1NC(=O)Cn1c(=O)n(CCCC(=O)NC2CCN(Cc3ccccc3)CC2)c(=O)c2ccccc21	-16

SMILES	hERG current change (%, negative = inhibition) at 1uM [%]
CC1CCN(C(=O)c2ccc(NS(=O)(=O)c3cccc4cccnc34)cc2)CC1	3.61
COc1ccc2c(c1)CCc1cc(C(=O)O)sc1-2	-3.57
CCOc1ccc(N(CC(=O)NC2CCCC2)C(=O)CCC(=O)Nc2nccs2)cc1	8.7
CC(C)(C)SCCNC(=O)c1ccc(NS(C)(=O)=O)cc1	-0.0459
O=C(O)CCC(=O)NNC(=O)CCCOc1ccc(Cl)cc1Cl	0.677
CCOC(=O)c1c(NC(=O)C2C3C=CC(C3)C2C(=O)O)sc2c1CCC(CC)C2 (stereo not shown)	14
CCOc1ccc(NC(=O)N2CCC(C(=O)c3ccc(F)cc3)CC2)cc1	5.78
CN(CC(=O)Nc1ccc(F)cc1)CC(=O)N1CCCCC1	1.14
Cc1ccccc1OCc1nc2ccccc2c(=O)n1N	7.23
CO/N=C(\C(=O)N[C@@H]1C(=O)N2C(C(=O)[O-])=C(COC(C)=O)CS[C@H]12)c1csc(N)n1.[Na+]	17.4
Cc1cc(C)nc(SCC(=O)Nc2ccc(S(=O)(=O)Nc3nccs3)cc2)n1	4.86
O=C(COC(=O)c1ccc2c(c1)S(=O)(=O)N=C1CCCCCN12)NCCc1ccc(F)cc1	8.96
CN(C)CCn1cnc2c1c(=O)n(C)c(=O)n2C.Cl	13.1
C(=N\Nc1nc(N2CCCCCC2)nc(N2CCCCCC2)n1)/c1ccccc1	6.09
Nc1nc(-c2ccc(Cl)cc2)nn1C(=O)c1cccnc1	-3.36
Cc1ccc(S(=O)(=O)Nc2ccc(N3CCOCC3)cc2)cc1	19
Cc1ccc(Cc2c(C)nc3nc(SCC(=O)NCCCN4CCCCCC4)nn3c2C)cc1	-15
CC1(C)CC(=O)c2sc(NS(=O)(=O)c3ccc(Cl)cc3)nc2C1	16.1
CCc1ccc(NC(=O)C2CCCN2S(=O)(=O)c2ccc3c(c2)C(C)(C)C(=O)N3C)cc1 (stereo not shown)	-14.6
O=C(CSc1nnc(-c2cccnc2)o1)OC1CCCCC1	10.6
CCCC(=O)NC(c1ccccc1OC)c1ccc2cccnc2c1O (stereo not shown)	4.77
Fc1ccc(CN2CCCCCC2)c(F)c1	6.75

SMILES	hERG current change (%, negative = inhibition) at 1uM [%]
COc1ccccc1NC(=O)c1cc([N+](=O)[O-])ccc1NCCN1C(=O)CCC1=O	15.9
O=C1N/C(=C/c2cccs2)C(=O)N1Cc1ccc(Br)cc1	1.96
O=C(NCCCCc1ccccc1)c1ccccc1Br	8.13
CCOC(=O)C1=C(COC(=O)CSc2ccc(Br)cc2)NC(=O)NC1C (stereo not shown)	18.7
Cc1c(NC(=O)C23CC4CC(CC(C)(C4)C2)C3)c(=O)n(-c2ccccc2)n1C	13.5
C=CCNC(=O)c1ccc(NC(=O)CC2SC(N3CCCC3)=NC2=O)cc1 (stereo not shown)	10.9
COc1ccccc1CO/N=C/NC(=O)c1c(OC)ccnc1Oc1ccc(F)cc1	-1.73
CCN(CC)S(=O)(=O)c1ccc2nnn(O)c2c1	9.18
C=CCn1c(SCC(=O)Nc2ccccc2F)nnc1C(C)NC(=O)c1ccccc1F (stereo not shown)	6.76
O=S(=O)(c1ccc(Cl)cc1)N1CCN(Cc2c[nH]c3ccccc23)CC1	2.9
COc1ccc(-c2nc3ccccn3c2NCc2ccc3c(c2)OCO3)cc1	-25.8
CN(C)S(=O)(=O)c1ccc(NC(=O)CN2CCCc3ccccc32)cc1	1.08
O=C(Nc1nc(-c2ccccc2)cs1)c1ccc(S(=O)(=O)N2CCc3ccccc32)cc1	7.7
COCCN(C(=O)CN1CCCc2ccccc21)c1c(N)n(Cc2ccccc2)c(=O)[nH]c1=O	-6.7
CCOC(=O)C1=C(COC(=O)CCOc2ccc(OCC)cc2)NC(=O)NC1C (stereo not shown)	2.97
COC(=O)C1=C(C)N(CCCC(=O)O)C(=O)NC1c1ccc(Br)cc1 (stereo not shown)	-15
O=C(Nc1cccc(NC(=O)c2cccs2)c1)c1ccco1	2.87
Cn1nc(-c2ccccc2)cc1NC(=O)C1CCCCC1	5.36
Cc1noc(C)c1CSc1nc2sc(C)c(C)c2c(=O)n1C1CCCC1	12.8
CCCS(=O)(=O)N1CCC(C(=O)NCc2ccco2)CC1	13.6
CCOc1ccc(-c2ccc(SCc3ccccn3)nn2)cc1	-4.03
COc1ccc(CCNC(=O)c2ccccc2C(=O)NCCc2ccc(OC)c(OC)c2)cc1OC	11.2

SMILES	hERG current change (%, negative = inhibition) at 1uM [%]
O=C1CC(Nc2cc(=O)[nH]c(=O)[nH]2)C(=O)N1c1ccccc1Cl (stereo not shown)	22.3
Cc1onc(-c2ccccc2)c1CNS(=O)(=O)c1ccccc1[N+](=O)[O-]	10.1
Cc1ccc(S(=O)(=O)NCCC2=CCCCC2)cc1C(N)=O	-21
Nc1nonc1OCCOCCOCCOc1nonc1N	13.8
CCCCn1c(N)c(N(CC(C)C)C(=O)CSCc2ccc(Cl)c(Cl)c2)c(=O)[nH]c1=O	4.18
CCOC(=O)C1=C(C)Nc2nc3ccccc3n2C1c1ccccc1 (stereo not shown)	9.22
NC(=S)N/N=C/c1ccccc1[N+](=O)[O-]	9.31
CC(=O)Nc1ccc(S(=O)(=O)NC(C)C(=O)OCC(=O)NC2CCCC2)cc1 (stereo not shown)	-4.61
CC(NC(=O)COC(=O)CCc1ccc(S(=O)(=O)N2CCOCC2)cc1)C1CC2CCC1C2 (stereo not shown)	5.75
CN1CCN(c2nc(-c3ccc(Cl)s3)cs2)CC1	14.6
C[C@@H](NC(=O)c1[nH]cnc1C(=O)Nc1cccc(Cl)c1)c1ccccc1	5.98
S=C(NNC(=S)Nc1ccccc1)Nc1ccccc1	9.53
Cc1ccc(C(=O)O/N=C/c2c(C(F)(F)F)nn(C)c2Sc2ccc(Cl)cc2)cc1	16.8
Cc1ccccc1OCC(=O)NCC(=O)OCC(=O)c1ccc([N+](=O)[O-])cc1	9.19
CC1C2(C)OC(=N)C(C#N)(C(C)O2)C1(C#N)C#N (stereo not shown)	13.5
CNCC(O)CN(c1ccccc1)c1ccccc1 (stereo not shown)	-13.1
Cn1c2ccccc2c(=O)c2c(=O)n(Cc3ccco3)c(COc3ccccc3)nc21	8.25
O=C(/C=C/NNC(=O)c1ccc(Cl)cc1)c1ccccc1	24.3
Nc1nc(N2CCN(c3ccc(Cl)cc3)CC2)n[nH]1	9.77
Cc1ccc(CCC(=O)Nc2ccccc2C(=O)O)o1	13.4
CC(C)(C)c1ccc(OCc2nc(-c3ccccn3)no2)c(Br)c1	16.1
COc1cccc(COC(=O)Cc2ccc(S(=O)(=O)N3CCOCC3)s2)c1OC	17.4
